# PMC6919601, “Identification of Plasmodium dipeptidyl aminopeptidase allosteric inhibitors by high throughput screening” (PLoS ONE, 2019)
# The whole screen tested about 110,000 compounds, of which about 230 (0.21%) showed an effect of 50% or more. The list shows a part of the results.
# Molecular target: DPAP1 (Plasmodium falciparum, UniProt Q8IIJ9)
# Assay: primary screen, percent inhibition; read by cleavage of a fluorogenic dipeptide substrate; higher = more effect of the substance
# Parameters: species or system P. falciparum D10 trophozoite lysates; single well
# 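Note: 30 min substrate incubation versus DMSO and 10 µM JCP410 controls.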
# Chain of DPAP1 (Q8IIJ9 whole entry, looked up): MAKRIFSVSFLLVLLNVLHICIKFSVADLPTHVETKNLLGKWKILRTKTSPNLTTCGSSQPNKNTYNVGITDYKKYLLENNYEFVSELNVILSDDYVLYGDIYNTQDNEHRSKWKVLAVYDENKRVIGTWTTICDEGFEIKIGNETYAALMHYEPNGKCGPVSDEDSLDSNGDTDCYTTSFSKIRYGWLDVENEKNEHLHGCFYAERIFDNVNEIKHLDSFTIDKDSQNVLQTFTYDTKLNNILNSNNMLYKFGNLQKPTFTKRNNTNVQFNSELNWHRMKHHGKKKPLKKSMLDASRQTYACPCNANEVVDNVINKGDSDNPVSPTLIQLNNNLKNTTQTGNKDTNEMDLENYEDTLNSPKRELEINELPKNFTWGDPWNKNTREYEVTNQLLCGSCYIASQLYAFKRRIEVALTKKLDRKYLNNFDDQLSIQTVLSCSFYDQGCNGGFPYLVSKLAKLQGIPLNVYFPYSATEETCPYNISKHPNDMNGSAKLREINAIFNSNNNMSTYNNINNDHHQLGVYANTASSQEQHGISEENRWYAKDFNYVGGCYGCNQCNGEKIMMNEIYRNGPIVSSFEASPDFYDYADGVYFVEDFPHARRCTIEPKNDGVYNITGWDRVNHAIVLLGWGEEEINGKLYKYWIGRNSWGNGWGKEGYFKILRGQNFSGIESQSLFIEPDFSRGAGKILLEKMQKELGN
row,SMILES,% Inhibition @ 10 uM
1,Cn1c(=O)c2c(-c3ccc(Cl)cc3)n(C3CCCCC3)cc2n(C)c1=O,5.17%
2,Cc1ccc(/C=C(\C#N)c2nc(-c3ccc(Cl)cc3)cs2)cc1,1.41%
3,CN(C)CC(=O)N1c2ccccc2CCc2ccc(NC(=O)c3ccccc3)cc21,0.774%
4,N#Cc1ccccc1NC(=O)COc1ccc2ccccc2c1,-4.03%
5,CC1CCN(C(=O)CN(c2ccccc2Br)S(C)(=O)=O)CC1,5.53%
6,CCOc1nc(-c2cccc(OC)c2)ccc1-c1noc(-c2cccnc2)n1,-5%
7,O=C(Nc1cc(C(F)(F)F)ccc1Cl)c1cccc(NC(=O)C(F)(F)F)c1,4.44%
8,CC(=O)OCC(=O)C1(O)CCC2C3CC=C4CC(O)CCC4(C)C3CCC21C (stereo not drawn),-0.0953%
9,Cc1cc2ccccc2n1CCNC(=O)c1ccc(S(=O)(=O)N2CCOCC2)cc1,-8.2%
10,CCCCCCC1C(=O)NC(=S)NC1=O,28.5%
11,NC(=O)CSc1nc2nccnc2c(=O)n1CCc1ccccc1,0.813%
12,CSc1nc2c(c(=O)n(C)c(=O)n2C)n1Cc1ccccc1Cl,4%
13,Cc1ccccc1CN1CCCNC1=O,4.23%
14,C=CCn1c(SCC(=O)NCCN2CCOCC2)nc2sc3c(c2c1=O)CCC3,-4.4%
15,Cc1nc2ccccc2n1Cc1cccc2ccccc12,2.92%
16,COC(=O)c1sc(NC(=O)C2CCCC2)c(C(=O)OC)c1C,-7.78%
17,Cc1ccc(C2=NN(C(=O)CCC(=O)O)C(c3ccccc3F)C2)cc1 (stereo not drawn),-4.59%
18,c1ccc(N2CCN(Cc3cccc4ccccc34)CC2)nc1,-1.29%
19,O=C(Cc1coc2ccc3ccccc3c12)Nc1ccccc1F,-3.26%
20,O=S(=O)(NCC1CCCO1)c1cc(Br)c(Br)s1 (stereo not drawn),1.2%
21,CCCCc1nc(S(=O)(=O)c2ccc(C)cc2)c(N2CCOCC2)o1,1.37%
22,Cn1c(/C=C/c2ccco2)nc2ccccc21,4.25%

row,SMILES,% Inhibition @ 10 uM
1,CC(Cc1cccc(C(F)(F)F)c1)NCCN1CCOCC1 (stereo not drawn),-5.31%
2,Cn1c(=O)c2c(nc(CN(Cc3ccccc3)Cc3ccccc3)n2CCCO)n(C)c1=O,-3.23%
3,Cc1ccc(C2C(C#N)=C(N)SC(N)=C2C#N)s1,55.8%
4,COc1ccc(C(=O)Nc2ccccc2-c2ccccc2)cc1,-6.27%
5,O=C(O)C1CCCN(c2nn3cc(-c4ccc(F)cc4)nc3s2)C1 (stereo not drawn),-3.34%
6,CC(C)Oc1ccc(-c2ccc(OC(C)C)cc2)cc1,-0.902%
7,COc1ccccc1N1CCN(C(=O)CCCOc2ccc(Cl)cc2Cl)CC1,-3.77%
8,Cc1ccccc1NS(=O)(=O)c1ccc(-c2ccc(S(=O)(=O)Nc3ccccc3C)cc2)cc1,-2.55%
9,O=C(C1CCC(CNS(=O)(=O)c2ccccc2)CC1)N1CCOCC1 (stereo not drawn),-4.53%
10,Cc1cc(NC(=O)CSc2nc3c(cc2C#N)CCCC3)no1,1.03%
11,CCOc1cc(-c2nc(-c3cc4ccccc4nc3OC)no2)cc(OCC)c1OCC,-4.19%
12,C=CCSc1nc2c(c(-c3ccc(C)o3)c1C#N)CCCC2,13.6%
13,O=c1c2ccccc2nc(C(Cl)(Cl)Cl)n1-c1ccccc1,-17.2%
14,CCCCCCn1c(=O)c2c(nc(CN(CC)CC)n2C)n(C)c1=O,-1.44%
15,COc1cc(NS(=O)(=O)c2ccc(NC(=O)c3ccc(-c4ccccc4)cc3)cc2)nc(OC)n1,-10.9%
16,COc1ccc(C2Oc3c(OC)cccc3C3CC(c4cc(C)ccc4O)=NN32)cc1O (stereo not drawn),4.97%
17,CC(C)NC(=O)C(C)N1Cc2ccccc2C1=O (stereo not drawn),-2.69%
18,COC(=O)C1=C(C)N=C2SCCC(=O)N2C1c1cccc(Oc2ccccc2)c1 (stereo not drawn),-1.17%
19,CC(=O)c1c(C)nc(-c2ccc(Cl)cc2)nc1NC(=O)c1ccccc1,3.25%
20,COc1ccc(C(=O)Nc2sc3c(c2C#N)CCC(C)C3)cc1 (stereo not drawn),-2.07%
21,CCc1nc2c(C)cc(C)cc2c(N)c1C,-1.32%
22,O=C(NCCc1ccc(Cl)cc1)C(Cc1ccccc1)N1Cc2ccccc2C1=O (stereo not drawn),-1.58%

row,SMILES,% Inhibition @ 10 uM
1,Cc1cc(O)nc(SCc2cn3c(C)cc(C)nc3n2)n1,1.72%
2,O=C(NCC1OCCc2ccccc21)c1ccco1 (stereo not drawn),-3.29%
3,C#CCn1nc(-c2ccccc2)ccc1=O,-0.946%
4,COc1cc(C2(c3ccc(O)c(OC)c3)C(=O)N(C)c3ccc(C)cc32)ccc1O,-0.69%
5,CC(C)=CCCC1(C)OC(=O)N(CCOC23CC4CC(CC(C4)C2)C3)C1(C)O (stereo not drawn),-5.63%
6,COc1ccc(CC(C)N2CCCC(O)C2)cc1OC (stereo not drawn),0.217%
7,Cc1cc(C)nc(SCC(=O)c2ccc(O)cc2O)n1,-0.687%
8,O=C1NC(=O)/C(=C\c2c(F)cccc2Cl)N1,-5.63%
9,CCOc1ccc(C2c3c(-c4ccccc4O)n[nH]c3C(=O)N2CCOC)cc1 (stereo not drawn),8.13%
10,O=C(c1ccc(F)cc1)N1N=C(c2cccs2)CC1c1ccccc1 (stereo not drawn),0.161%
11,O=C(CSc1nc(O)cc(-c2ccccc2)n1)NCc1cccs1,-1.6%
12,Cc1ccc(SCCC(=O)N2CCC(C)CC2)cc1,3.49%
13,CC1=CC(C)(C)NC(=S)N1c1ccc(Br)c(C)c1,-0.969%
14,CCOc1ccc2cc(C3CC(c4ccc(C)cc4)=NN3C(C)=O)c(Cl)nc2c1 (stereo not drawn),-1.47%
15,COc1ccccc1NC(=O)c1ccc(NS(=O)(=O)c2cccc(C(F)(F)F)c2)cc1,-2.76%
16,CCCN1CCN(C(=O)C2CCN(c3nc4cc(Br)c(OCC)cc4s3)CC2)CC1,3.3%
17,COc1ccc(C2(N3CCOCC3)Oc3ccccc3C(C#Cc3ccccc3)=C2C)cc1 (stereo not drawn),-1.15%
18,CN1CCN(c2ccc([N+](=O)[O-])c(N)c2)CC1,-6.99%
19,Cc1ccc(-c2nc(C(=O)N(C)CCC#N)c3n2CCCCC3)cc1,-3.47%
20,CCOC(=O)c1c(C)nc2cc(C(=O)O)nn2c1C,-1.66%
21,Clc1ccc(N2CCN(C3CCCCCC3)CC2)cc1,-3.6%
22,O=C(NCc1ccco1)c1ccc(Br)cc1,-0.833%
